Assay results from PubChem BioAssay (NCI).
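1) Cells in 96-well plates. 2) Compound, 48 h, 5 concentrations. 3) Linear interpolation between surrounding doses. 4) Unreached endpoint = highest concentration. GI50 is the concentration that inhibits growth by half. TGI is the concentration that stops growth completely.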

System: NCI-H322M lung
Test: inhibition of tumour cell growth, NCI panel, 48 h

Compound	GI50 [µM]	TGI [µM]
O=C1Nc2cc(-c3ccc(NS(=O)(=O)c4ccc(F)c(Cl)c4)cc3)ccc2/C1=C/c1ccc[nH]1	2.41	28.2
COC(=O)C[C@](O)(CCCC(C)(C)O)C(=O)O[C@H]1C(OC)=C[C@@]23CCCN2CCc2cc4c(cc2[C@@H]13)OCO4	4.63	22.9
